Literature values in patent US20060229299A1, “5ht2c Receptor antagonists in the treatment of schizophrenia” (priority 2003, published 2006).

Tests used:
D4 dopamine receptor = biological target: T1, D4 dopamine receptor (Rattus norvegicus, UniProt P30729); details: cited from earlier work
T1 sequence (P30729 1-387): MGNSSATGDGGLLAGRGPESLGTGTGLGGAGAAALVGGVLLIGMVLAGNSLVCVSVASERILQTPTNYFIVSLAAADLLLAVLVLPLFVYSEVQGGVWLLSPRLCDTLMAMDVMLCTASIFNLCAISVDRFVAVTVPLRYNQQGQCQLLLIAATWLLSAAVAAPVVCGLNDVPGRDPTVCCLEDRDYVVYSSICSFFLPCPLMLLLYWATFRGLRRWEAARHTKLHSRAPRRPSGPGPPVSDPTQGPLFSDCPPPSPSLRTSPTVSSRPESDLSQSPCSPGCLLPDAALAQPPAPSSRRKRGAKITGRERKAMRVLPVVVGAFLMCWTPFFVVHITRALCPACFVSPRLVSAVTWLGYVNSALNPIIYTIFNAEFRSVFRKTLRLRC

α1-adrenoceptor [1] = details: human, expressed as KD; cited from earlier work
5-HT7 receptor = 5-HT7 receptor (Mus musculus, UniProt P32304); details: cited from earlier work
5-HT3 receptor = biological target: T2, 5-HT3 receptor (Mus musculus, UniProt P23979); details: cited from earlier work
T2 sequence (P23979 24-489): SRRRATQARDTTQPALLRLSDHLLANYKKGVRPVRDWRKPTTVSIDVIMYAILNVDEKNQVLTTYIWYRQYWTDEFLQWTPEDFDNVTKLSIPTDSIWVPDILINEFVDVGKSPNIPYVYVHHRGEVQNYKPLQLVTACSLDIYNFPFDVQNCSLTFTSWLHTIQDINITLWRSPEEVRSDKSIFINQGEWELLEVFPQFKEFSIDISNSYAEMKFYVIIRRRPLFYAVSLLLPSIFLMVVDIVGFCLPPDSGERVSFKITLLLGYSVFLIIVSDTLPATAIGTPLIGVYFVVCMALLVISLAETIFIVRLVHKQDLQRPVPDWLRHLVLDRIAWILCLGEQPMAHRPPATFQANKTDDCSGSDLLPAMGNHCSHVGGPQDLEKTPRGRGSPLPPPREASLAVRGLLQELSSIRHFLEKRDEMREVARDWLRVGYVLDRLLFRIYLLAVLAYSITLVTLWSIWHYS

5-HT2C receptor = biological target: T3, 5-HT2C receptor (Sus scrofa, UniProt K7GSR7); details: pig; cited from earlier work
T3 sequence (K7GSR7 1-457): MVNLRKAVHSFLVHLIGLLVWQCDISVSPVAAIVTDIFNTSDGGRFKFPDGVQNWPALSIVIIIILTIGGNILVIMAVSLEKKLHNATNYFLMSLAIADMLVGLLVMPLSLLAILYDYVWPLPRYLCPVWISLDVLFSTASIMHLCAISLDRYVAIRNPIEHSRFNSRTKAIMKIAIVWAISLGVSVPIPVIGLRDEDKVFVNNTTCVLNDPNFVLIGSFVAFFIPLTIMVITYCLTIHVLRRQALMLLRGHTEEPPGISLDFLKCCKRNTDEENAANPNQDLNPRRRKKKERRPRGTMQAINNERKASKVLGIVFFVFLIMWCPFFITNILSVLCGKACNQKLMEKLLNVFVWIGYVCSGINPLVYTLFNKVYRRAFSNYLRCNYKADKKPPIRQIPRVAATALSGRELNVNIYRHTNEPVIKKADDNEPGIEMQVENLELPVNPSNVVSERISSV

D3 dopamine receptor = D3 dopamine receptor (Homo sapiens, UniProt P35462); details: cited from earlier work
α1-adrenoceptor [2] = details: species for α1 not given; cited from earlier work
sigma, σ receptor = details: guinea-pig; cited from earlier work
5-HT2A receptor = 5-HT2A receptor (Homo sapiens, UniProt P28223); details: cited from earlier work
Chain of 5-HT2A receptor (P28223 whole entry): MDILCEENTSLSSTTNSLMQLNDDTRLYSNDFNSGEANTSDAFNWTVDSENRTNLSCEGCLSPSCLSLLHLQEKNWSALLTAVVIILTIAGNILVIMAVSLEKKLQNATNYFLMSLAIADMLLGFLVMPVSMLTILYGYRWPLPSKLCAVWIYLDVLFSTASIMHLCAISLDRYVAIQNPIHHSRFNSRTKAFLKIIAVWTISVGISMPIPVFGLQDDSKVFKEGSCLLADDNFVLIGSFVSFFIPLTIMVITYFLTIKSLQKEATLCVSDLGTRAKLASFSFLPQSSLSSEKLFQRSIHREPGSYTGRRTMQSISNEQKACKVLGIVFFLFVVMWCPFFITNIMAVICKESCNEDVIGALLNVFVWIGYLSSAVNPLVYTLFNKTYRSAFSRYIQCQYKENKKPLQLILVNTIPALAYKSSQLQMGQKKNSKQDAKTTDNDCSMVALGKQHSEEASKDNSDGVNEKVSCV

Chain of 5-HT7 receptor (P32304 whole entry): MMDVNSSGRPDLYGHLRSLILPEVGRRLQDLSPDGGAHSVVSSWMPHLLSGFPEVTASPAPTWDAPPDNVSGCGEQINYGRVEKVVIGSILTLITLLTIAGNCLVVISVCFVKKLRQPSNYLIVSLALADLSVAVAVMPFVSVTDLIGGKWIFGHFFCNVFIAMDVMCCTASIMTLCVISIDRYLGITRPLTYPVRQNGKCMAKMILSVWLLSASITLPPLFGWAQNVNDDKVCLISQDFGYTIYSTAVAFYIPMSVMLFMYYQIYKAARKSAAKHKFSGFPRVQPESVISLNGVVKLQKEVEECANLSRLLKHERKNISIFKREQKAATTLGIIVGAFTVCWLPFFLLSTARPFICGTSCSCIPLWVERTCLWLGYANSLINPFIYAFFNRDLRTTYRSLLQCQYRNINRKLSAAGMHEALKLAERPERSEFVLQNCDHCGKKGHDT
Chain of D3 dopamine receptor (P35462 whole entry): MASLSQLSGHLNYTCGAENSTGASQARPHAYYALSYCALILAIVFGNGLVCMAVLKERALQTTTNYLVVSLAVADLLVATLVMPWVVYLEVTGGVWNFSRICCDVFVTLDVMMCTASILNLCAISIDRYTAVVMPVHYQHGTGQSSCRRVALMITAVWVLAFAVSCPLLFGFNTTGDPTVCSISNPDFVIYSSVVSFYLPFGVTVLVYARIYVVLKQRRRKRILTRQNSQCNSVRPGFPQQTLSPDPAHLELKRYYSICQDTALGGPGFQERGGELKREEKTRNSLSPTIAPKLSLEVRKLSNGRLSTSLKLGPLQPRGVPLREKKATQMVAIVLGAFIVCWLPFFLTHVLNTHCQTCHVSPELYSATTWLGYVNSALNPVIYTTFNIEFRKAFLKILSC

## OCCN1CCN(CCCN2c3ccccc3Sc3ccc(C(F)(F)F)cc32)CC1 [Fluphenazine]
D4 dopamine receptor
  D4 affinity value (−logKi): 8.0^4
α1-adrenoceptor [1]
  α1 affinity value (−log KD): 8.0^16

## CSc1ccc2c(c1)N(CCC1CCCCN1C)c1ccccc1S2 (stereo not shown) [Thioridazine]
D4 dopamine receptor
  D4 affinity value (−logKi): 8.4^4

## O=C(CCCN1CCC(O)(c2ccc(Cl)cc2)CC1)c1ccc(F)cc1 [Haloperidol]
5-HT7 receptor
  5-HT7 affinity value (−logKi): 6.4^6

## Cc1cc2c(s1)Nc1ccccc1N=C2N1CCN(C)CC1 [Olanzapine]
5-HT3 receptor
  5-HT3 affinity value (−logKi): 7.1^6

## CN1CCN(C2=Nc3cc(Cl)ccc3Nc3ccccc32)CC1 [Clozapine]
5-HT2C receptor
  5-HT2C affinity value (−logKi): 7.9^6

## Cc1nc2n(c(=O)c1CCN1CCC(c3noc4cc(F)ccc34)CC1)CCCC2 [Risperidone]
D4 dopamine receptor
  D4 affinity value (−logKi): 7.8^4

## OCCOCCN1CCN(C2=Nc3ccccc3Sc3ccccc32)CC1 [Seroquel]
5-HT7 receptor
  5-HT7 affinity value (−logKi): 6.5^6
D3 dopamine receptor
  D3 affinity value (−logKi): 6.5^6
D4 dopamine receptor
  D4 affinity value (−logKi): 5.9^4
α1-adrenoceptor [2]
  α1 affinity value (−logKi): 7.2^6
sigma, σ receptor
  sigma affinity value (−logKi): <5.3^6

## COc1cc(C(C)=O)ccc1OCCCN1CCC(c2noc3cc(F)ccc23)CC1 [Iloperidone]
5-HT2A receptor
  5-HT2A affinity value (−logKi): 8.3^10
